Measurements published in article PMC4336329 (PLoS ONE, 2015).
Among all 310,000 compounds or so, about 2,200 (0.71%) showed an effect of 50% or more. The effect is printed as a negative number. Some of the results follow.

biological target: human ether-à-go-go-related gene (hERG) potassium channel (human, UniProt Q12809); experiment: primary screen, population patch clamp on CHO cells stably expressing hERG
Sequence (Q12809 whole entry, looked up): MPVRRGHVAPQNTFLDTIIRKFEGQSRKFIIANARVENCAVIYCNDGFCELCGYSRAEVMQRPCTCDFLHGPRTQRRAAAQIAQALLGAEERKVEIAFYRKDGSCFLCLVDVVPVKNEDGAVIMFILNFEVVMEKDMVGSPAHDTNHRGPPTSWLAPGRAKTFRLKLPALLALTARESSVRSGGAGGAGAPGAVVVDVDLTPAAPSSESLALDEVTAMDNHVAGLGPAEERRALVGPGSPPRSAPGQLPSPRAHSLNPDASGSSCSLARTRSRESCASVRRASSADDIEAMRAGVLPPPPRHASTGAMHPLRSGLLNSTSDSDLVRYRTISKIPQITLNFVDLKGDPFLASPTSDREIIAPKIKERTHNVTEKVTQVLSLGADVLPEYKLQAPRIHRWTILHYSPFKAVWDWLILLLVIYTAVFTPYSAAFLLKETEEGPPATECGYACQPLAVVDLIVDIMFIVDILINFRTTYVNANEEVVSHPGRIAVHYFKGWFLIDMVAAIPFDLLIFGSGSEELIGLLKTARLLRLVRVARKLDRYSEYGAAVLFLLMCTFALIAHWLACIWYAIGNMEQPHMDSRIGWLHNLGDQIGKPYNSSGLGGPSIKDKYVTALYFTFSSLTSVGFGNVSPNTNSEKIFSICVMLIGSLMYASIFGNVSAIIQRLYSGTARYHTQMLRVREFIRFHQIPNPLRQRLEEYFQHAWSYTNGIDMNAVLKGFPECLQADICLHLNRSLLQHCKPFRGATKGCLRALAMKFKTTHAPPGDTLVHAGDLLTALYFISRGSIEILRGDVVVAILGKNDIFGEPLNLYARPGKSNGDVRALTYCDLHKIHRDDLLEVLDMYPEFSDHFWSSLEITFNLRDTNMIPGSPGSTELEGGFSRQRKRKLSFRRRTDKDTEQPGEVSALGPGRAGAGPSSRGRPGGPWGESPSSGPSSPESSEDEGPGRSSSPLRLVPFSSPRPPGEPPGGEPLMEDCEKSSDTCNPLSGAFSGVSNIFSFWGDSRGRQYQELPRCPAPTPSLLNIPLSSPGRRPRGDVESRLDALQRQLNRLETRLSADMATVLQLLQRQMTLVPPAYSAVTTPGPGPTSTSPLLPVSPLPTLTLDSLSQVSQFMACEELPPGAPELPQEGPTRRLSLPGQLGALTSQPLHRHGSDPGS

In order of falling “hERG current change (%, negative = inhibition) at 1uM” value:
1. CCc1nnc(NC(=O)c2ccc(COc3cccc(C)c3)o2)s1  20.6%
2. COc1cc(NC(=O)c2cc(C)no2)cc(OC)c1OC  19.9%
3. CCOC(=O)c1nnn(-c2nonc2-n2cccc2)c1CCl  19.5%
4. CC1C(=O)Nc2ccc(S(=O)(=O)NCc3ccc(Cl)cc3)cc2NC1=O (stereo not drawn)  18.7%
5. O=C(Cc1ccccc1F)NC1CCCc2ccccc21 (stereo not drawn)  17.9%
6. O=C(N/N=C/c1ccccn1)c1c[nH]c2ccccc12  17.1%
7. O=C(c1ccccc1)N1CCCCC(Sc2nnc3ccccn23)C1=O (stereo not drawn)  17%
8. CCOc1ccccc1NC(=O)C1=C(C)NC(=O)NC1c1cccc(OC)c1OC (stereo not drawn)  16.2%
9. CN(C)C(=O)CN1C(=O)NC2(CCCc3ccccc32)C1=O (stereo not drawn)  16%
10. O=C(CNC(=S)NC(=O)c1ccc(Cl)cc1)c1ccccc1  15%
11. CCCCCCn1c(=O)c(C(=O)Nc2cccc(C)n2)c(O)c2ccccc21  14.9%
12. O=C(NCCC1=CCCCC1)C1CCC(CNc2c(N3CCCCC3)c(=O)c2=O)CC1 (stereo not drawn)  14.7%
13. Cc1ccc(C2(O)CC(C)N(C)CC2C)cc1 (stereo not drawn)  14.6%
14. CC(C)N1C(=O)N(c2cccc(Cl)c2)C(C)(O)CC1(C)C (stereo not drawn)  14.4%
15. COC(=O)Cn1c(O)c(N=NC(=O)c2ccc3c(c2)OCO3)c2ccccc21  13.7%
16. COCC(=O)N1CCN(c2nc3ccccc3o2)CC1  13.3%
17. Cc1ccc(NC(=O)C2CCN(S(=O)(=O)c3ccc4c(c3)C(C)(C)C(=O)N4C)CC2)c(C)c1  13%
18. CCOC(=O)c1c(C)n(O)c2ccc(Cl)cc2c1=O  13%
19. COc1cccc(CN(C)CC(=O)Nc2ccccc2C(=O)Nc2ccccc2)c1OC  12.8%
20. CCOC(=O)c1cnc2cc(F)c(F)cc2c1N1CCOCC1  12.8%
21. COc1cc(-c2nc(-c3ccc(NC(=O)c4ccc5c(c4)OCO5)cc3)no2)cc(OC)c1OC  12.7%
22. Clc1cc(Cl)c2nc(N3CCCC3)sc2c1  12.6%
23. CCOc1ccc(C(=S)N2CCOCC2)cc1OC  11.6%
24. CC(C)c1ccc(/C=N/NC(=O)c2cc(-c3cccc([N+](=O)[O-])c3)n[nH]2)cc1  11.5%
25. N#C/C(=C\c1cccnc1)c1nc2c(s1)CCCC2  11.5%
26. Cc1nc2ccccc2cc1C(=O)NCc1ccccc1  11%
27. COc1cc(NC(=O)C2CCN(S(=O)(=O)c3cccs3)CC2)cc(OC)c1  10.9%
28. COc1ccccc1N1CCN(C(=O)CSc2nc3ccccc3o2)CC1  10.8%
29. N#CC1(NC(=O)COc2cccnc2[N+](=O)[O-])CCCCC1  10.6%
30. Cc1ccc(S(=O)(=O)NN2C(=O)c3ccccc3NC2c2ccccc2F)cc1 (stereo not drawn)  10.2%
31. CCn1cc(C(=O)NCC(=O)NCCCN2CCOCC2)c(=O)c2cc3c(cc21)OCO3  10.2%
32. Cc1ccc(NC(=O)c2ccc3ccccc3n2)cc1S(=O)(=O)N(C)C  9.94%
33. CN(C)/C=C/C(=O)c1ccc(OCCN(C)c2ccccn2)cc1  9.93%
34. O=C(Nc1ccc2c(c1)OCO2)c1ccc([N+](=O)[O-])cc1[N+](=O)[O-]  9.81%
35. COc1cc(C(=S)N2CCCC2)cc(Cl)c1OCC(=O)Nc1ccc(C)cc1C  9.32%
36. Cc1cc(C)cc(N(CC(=O)N2CC=C(c3ccccc3)CC2)S(=O)(=O)c2c(C)noc2C)c1  9.21%
37. CCOC(=O)c1c(/N=C/N(C)C)sc(C)c1C  8.85%
38. O=[N+]([O-])c1cc([N+](=O)[O-])c(Oc2cccnc2Br)cc1NN1CCCCC1  7.94%
39. COc1ccc([N+](=O)[O-])cc1NC1CCCCC1.O=C(O)C(=O)O  7.39%
40. Cc1nc(C)c(C(=O)N2CCCC(CCC(=O)NCc3ccc(F)c(F)c3)C2)s1 (stereo not drawn)  7.25%
41. Cn1c2ccccc2c2cnn(CC(=O)Nc3ccc(F)cc3F)c(=O)c21  7.03%
42. CCOC(=O)C1(CCCc2ccccc2)CCN(C(=O)C2CCCO2)CC1 (stereo not drawn)  5.58%
43. CCN1C(=O)c2ccccc2Sc2ccc(C(=O)NCCN3CCOCC3)cc21  4.7%
44. O=S(=O)(c1ccccc1)N1C2CCC1CC(O)(c1cccnc1)C2 (stereo not drawn)  4.06%
45. Cc1ccc(C)c(NC(=O)c2sc(Cl)nc2C)c1  3.99%
46. Cc1nc2nc(SCC(=O)N3CCOCC3)nn2c(C)c1Cc1c(F)cccc1Cl  3.11%
47. CC(=O)Nc1ccc(NC(=O)C(C)OC(=O)c2ccccc2C(=O)c2ccc(Cl)c([N+](=O)[O-])c2)cc1 (stereo not drawn)  2.9%
48. COCCN(Cc1nc(-c2ccc(-c3ccccc3)cc2)oc1C)C(C)C  2.62%
49. CCCCNC(=O)CN(CCc1ccccc1)S(C)(=O)=O  0.874%
50. O=C(NCCC1=CCCCC1)NC12CC3CC(CC(C3)C1)C2  0.57%
51. O=C(CC1(O)C(=O)N(CCc2ccccc2)c2ccccc21)c1ccco1 (stereo not drawn)  -0.106%
52. O=C(Nc1ccc(Cc2ccncc2)cc1)c1ccco1  -0.641%
53. CCOC(=O)CCC(=O)NNC(=O)COc1ccc(C(C)C)cc1Br  -2.35%
54. Cc1ccc(CNC(=O)C(=O)NCC2OCCN2S(=O)(=O)c2ccc(Cl)cc2)cc1 (stereo not drawn)  -3.01%
55. CC(C)CCN1CCN(Cc2nc3c(s2)CCCC3)CC1CCO (stereo not drawn)  -4.81%
56. O=C1CC(c2ccc(F)cc2)Sc2ccccc2N1 (stereo not drawn)  -6.6%
57. Cn1c(CCN2CCCCC2)nc2cc(NC(=O)COc3ccc(Cl)cc3)ccc21  -89.6%
